# The whole screen tested about 360,000 compounds, of which about 17,000 (4.7%) were called active. This list was built around the results that the source calls inconclusive (neither active nor inactive); the mix of calls is not that of the screen. No stated cut-off is given here; in the data, active means activity change below about -50%; inconclusive means mostly about -30% to -49%; inactive means weaker than that.
# Test: qHTS for Inhibitors of Inflammasome Signaling: IL-1-beta AlphaLISA Primary Screen
# Conditions: THP-1 LPS/ATP IL-1B secretion, 16 h; at 57.5 µM, stronger effect = lower value
# How it was run: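 Secreted IL-1B measured by AlphaLISA bead assay after 16 h compound exposure of THP-1 cells; compounds (final up to 57.5 uM) added 1 h before LPS (250 ng/mL) and ATP (1.25 mM) stimulation; lower signal means less secretion.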
# On the % scale 0 is the no-effect control and ±100 the full control effect.
row,Compound,activity change
1,C=CCc1cc(OC)ccc1OCCOCCN1CCc2ccccc2C1,inconclusive: -38%
2,COc1ccc(CN2C(=O)C(CC(C)C)Nc3ncnc(N4CCN(c5ccccn5)CC4)c32)cc1 (stereo not given),active: -57.7%
3,Cc1ccccc1SCC(=O)OCC(=O)NCc1ccccc1,inactive: 4.15%
4,Cc1ccc(NC(=O)COC(=O)C2(c3ccc(Cl)cc3)CCCC2)cc1,inconclusive: -37.9%
5,O=C(CSc1ccc2nnc(CCNS(=O)(=O)c3ccccc3)n2n1)Nc1nc2ccccc2s1,inactive: -13.6%
6,Nc1ccccc1SCC(=O)Nc1cccc2ccccc12,inactive: -9.64%
7,CC(=O)Nc1sc(NC(=O)c2ccc([N+](=O)[O-])cc2)nc1-c1cccs1,inconclusive: -44.7%
8,Cc1ccc(OCCC(=O)OCC(=O)Nc2cc(S(=O)(=O)N(C)C)ccc2C)cc1,inconclusive: -49.5%
9,O=C(Nc1ccc(N2CCN(C(=O)c3ccccc3)CC2)cc1)c1ccc(Br)o1,active: -53.7%
10,CC(C)(C)c1ccc(NC(=O)Nc2ccc(F)cc2)cc1,inconclusive: -36.7%
11,CN(CC(=O)Nc1ccc(Cl)c(Cl)c1)C(=O)C1CCC1,inconclusive: -38.7%
12,FC(F)(F)c1ccc(-c2noc(CN3CCCN(C4CCCCC4)CC3)n2)cc1,inconclusive: -42.1%
13,CCN(CC(=O)Nc1ccc(OC)cc1)C(=O)c1cc(S(=O)(=O)N2CCOCC2)ccc1N1CCCC1,inconclusive: -41.2%
14,CC(=O)N1CC2(CC(c3ccccc3C(F)(F)F)=NO2)CN1c1ccc(Cl)cc1 (stereo not given),inconclusive: -31.4%
15,O=C(CSc1nc2ccccc2[nH]1)N=Nc1c(O)[nH]c2ccccc12,inconclusive: -37.7%
16,COc1cc(CNCCc2c[nH]c3ccccc23)cc(Cl)c1OCC(N)=O,inconclusive: -48%
17,O=C(Nc1cc(S(=O)(=O)N2CCOCC2)ccc1-n1cncn1)c1ccc(Cl)cc1,inconclusive: -48.7%
18,CCOc1cnn(-c2ccccc2)c(=O)c1Cl,inconclusive: -40.1%
19,O=C(Nc1ccc2c(c1)nc1n2CCN(Cc2ccccc2)C1)c1cccs1,active: -94.1%
20,Cc1ccccc1NCC(=O)N/N=C/C(Br)=C/c1ccccc1,inconclusive: -35.1%
21,CC(C)c1cc(C(C)C)c(S(=O)(=O)N2CCNCC2)c(C(C)C)c1,active: -81.2%
22,COc1ccc(C(=O)N/N=C(\C)c2ccccn2)cc1OC,active: -78.9%
23,COc1ccc2cc(CO)c3cc(OC)c(OC)cc3c2c1,inconclusive: -40.8%
24,O=C(NCc1ccccc1)C12CN(Cc3ccccc3)CC1C(c1cccc([N+](=O)[O-])c1)=NO2 (stereo not given),inconclusive: -31.9%
25,COc1ccccc1C(CNC(=O)c1cccc(S(=O)(=O)Nc2ccc(C)cc2)c1)N1CCCC1 (stereo not given),inconclusive: -38.4%
26,COc1cc(N/N=C(\C)c2ccc(O)c(C)c2)nc(-c2ccccc2)n1,active: -58.7%
27,CCOC(=O)c1c(-c2ccc(-c3ccccc3)cc2)csc1NC(=O)CCN1CCOCC1,active: -50%
28,O=C(O)c1cccc(N=NN2CCOCC2)c1,inactive: -6.49%

row,Compound,activity change
1,C[C@@H]1c2ccccc2N2C[C@H](Cc3ccc(C(=O)c4ccccc4)cc3)C[C@@H]12,inactive: -4.12%
2,COc1cc(OC)cc(-c2sc3ccc(OC)cc3c2C#CC2(N)CCCCC2)c1,inconclusive: -47.9%
3,O=C1/C(=C/c2ccco2)CCc2ccccc21,inconclusive: -46.7%
4,COc1ccc2c(c1)OC[C@H]1[C@H]2N2C(=O)c3cc(C)ccc3NC(=O)[C@@]2(C)[C@H]1c1ccccc1,inconclusive: -42.3%
5,CCOc1ccc(C(=O)NC(=S)Nc2cccnc2)cc1,inactive: 31.5%
6,CCOC(=O)C1CCCN(Cc2cn[nH]c2-c2ccc(F)cc2F)C1 (stereo not given),inconclusive: -30.9%
7,C=C(C)c1cccc(C(C)(C)NC(=O)NC(c2ccccc2)c2ccc(OC)cc2)c1 (stereo not given),inconclusive: -33.3%
8,C=Cc1ccc(Cn2c(C)c(C(=O)NCc3ccc(C#N)cc3)sc2=O)cc1,inconclusive: -34.7%
9,O=S(=O)(Nc1ccccc1)c1ccc(-c2csnn2)cc1,inconclusive: -46.5%
10,COc1cc(-n2c(=O)c3ccccc3n(Cc3cccc(F)c3)c2=O)cc(OC)c1OC,inconclusive: -45%
11,COc1ccc(NC(=O)c2ccc(NC(=O)c3ccco3)cc2)c(OC)c1,active: -50%
12,CCOC(=O)C1CCCN(S(=O)(=O)CCNC(=O)c2ccccc2)C1 (stereo not given),inconclusive: -49.4%
13,CC1CCN(CCCNC(=O)CCc2nnc3n(CCc4ccccc4)c(=O)c4ccccc4n23)CC1,inconclusive: -47%
14,CCOC(=O)C1(CCc2ccccc2)CCN(Cc2cnc(N(C)C)s2)CC1,inconclusive: -40.7%
15,Cc1ccc(Cl)cc1N1CCN(C(=O)c2ccc(CS(=O)Cc3ccc(Cl)cc3)o2)CC1 (stereo not given),inconclusive: -32.9%
16,COc1ccc(CCNc2oc(-c3ccccc3OC)nc2C#N)cc1,inconclusive: -32.3%
17,O=C(Nc1ccc2c(c1)OCO2)C1CCCN(S(=O)(=O)c2cccs2)C1 (stereo not given),inactive: -9.71%
18,O=C(COc1ccc(C(=O)c2ccccc2)cc1)NCc1ccc(F)cc1,inactive: -2.72%
19,CCn1c(CNC(=O)Cc2ccc(OC)cc2)nnc1SCCOc1ccccc1,inconclusive: -44.7%
20,O=C(Nc1nc2ccccc2s1)c1ccc([N+](=O)[O-])o1,active: -67.8%
21,Nc1nnnn1-c1cccc([N+](=O)[O-])c1,inactive: 14.9%
22,N#Cc1ccc(OCC(O)CN2CCN(c3ncc(C(F)(F)F)cc3Cl)CC2)cc1 (stereo not given),active: -65.1%
23,COc1cc(NC(=O)C2CC(c3cccc(OC)c3OC)=NO2)cc(OC)c1OC (stereo not given),inactive: -17.6%
24,Cc1ccccc1Nc1nc2ccccc2s1,inconclusive: -49.2%
25,COc1nc(-c2ccccc2)ccc1-c1noc(COc2ccccc2)n1,inconclusive: -34.1%
26,Cc1cccc(NC(=S)NCc2ccc3c(c2)cc(C)n3C)c1C,inactive: -4.04%
27,Cc1cccc(-c2cc(N)n(-c3ccccc3)n2)c1,inconclusive: -31.2%

# Reference: PubChem BioAssay AID743279 (National Center for Advancing Translational Sciences (NCATS), 2014)
